One assay concerns HSkMC. Kind of assay: cytotoxicity call (relative viability < 0.9). The following applies: 10 µM.
A further assay deals with HepG2. Kind of assay: cytotoxicity call (relative viability < 0.9). The following applies: 10 µM.
The test system of the next assay is S. aureus RN4220. As to the kind of experiment: growth inhibition call (relative growth <= 0.2). The following applies: 50 µM.

Some of the results follow.

Regarding `C[C@@H]1CCCCO[C@@H](CN(C)Cc2ccc(C(F)(F)F)cc2)[C@H](C)CN([C@@H](C)CO)C(=O)c2cc(NC(=O)NC3CCCCC3)ccc2O1`, the cytotoxicity call with HSkMC was “inactive”. Further, the cytotoxicity call in the assay with HepG2 is “active”. Further, the growth inhibition call with S. aureus RN4220 was “inactive”.

With `CCCCCCCCCCCC(CC1OC(=O)C1CCCCCC)OC(=O)C(CC(C)C)NC=O` (centres undefined), the cytotoxicity call with HSkMC and in the assay on HepG2 was “inactive” throughout. In the assay on S. aureus RN4220, the growth inhibition call was “inactive”.

For the compound `C=CCOC(=O)[C@@H]1[C@H]2C(=O)O[C@H](c3ccccc3)[C@H](c3ccccc3)N2[C@H](c2ccc(OCCOC(=O)[C@H]3C[C@H]4C(=O)N[C@@H](CCCC[N+](C)(C)C)C(=O)N4[C@H]3c3ccc(O)cc3)cc2)[C@@]12C(=O)Nc1ccc(I)cc12`, the cytotoxicity call in the assay on HSkMC and in the assay on HepG2 was “inactive” in each case. The growth inhibition call in the assay with S. aureus RN4220 was “inactive”.

For `CCS(=O)(=O)Nc1ccc2c(c1)C(=O)N(C)[C@H]1CC[C@@H](CC(=O)N[C@@H]3CCN(Cc4ccccc4)C3)O[C@@H]1CO2`, the cytotoxicity call in the assay with HSkMC and in the assay with HepG2 was “inactive” in each case. Further, in the assay with S. aureus RN4220, the growth inhibition call was “inactive”.

In the case of `C[C@H](CO)N1C[C@H](C)[C@H](CN(C)S(=O)(=O)c2ccccc2)OCCCC[C@H](C)Oc2ccc(NC(=O)CCC(F)(F)F)cc2C1=O`, the cytotoxicity call with HSkMC and in the assay with HepG2 was “inactive” in each case. In addition, in the assay with S. aureus RN4220, the growth inhibition call was “inactive”.

As for `CCS(=O)(=O)N1CC[C@]2(CC1)CN([C@H](CO)c1[nH]c3cc(ccc3c12)OC)C(=O)Nc1c(noc1C)C`, the cytotoxicity call in the assay on HSkMC and in the assay on HepG2 was “inactive” throughout. For the same compound, in the assay with S. aureus RN4220, the growth inhibition call is “inactive”.

As to `C[C@H](CO)N1C[C@H](C)[C@@H](CN(C)Cc2ccc(Cl)c(Cl)c2)Oc2ccc(NC(=O)CCCCCC(=O)Nc3ccccc3N)cc2CC1=O`, the cytotoxicity call in the assay on HSkMC and in the assay with HepG2 was “inactive” throughout. In the assay on S. aureus RN4220, the growth inhibition call is “inactive”.

On to `C[C@@H]1CC[C@@]2(OC1)O[C@H]1C[C@H]3[C@H]4CC=C5C[C@@H](O[C@@H]6O[C@H](CO)[C@@H](O[C@@H]7O[C@@H](C)[C@H](O)[C@@H](O)[C@H]7O[C@@H]7O[C@@H](C)[C@H](O)[C@@H](O)[C@H]7O)[C@H](O)[C@H]6O)CC[C@]5(C)[C@@H]4CC[C@]3(C)[C@H]1[C@@H]2C`, for which the cytotoxicity call with HSkMC and in the assay on HepG2 was “active” throughout. Moreover, the growth inhibition call in the assay on S. aureus RN4220 is “inactive”.

Regarding `C[C@H](CO)N1C[C@H](C)[C@@H](CN(C)S(=O)(=O)c2cccs2)Oc2ccc(NC(=O)CCN3CCOCC3)cc2CC1=O`, the cytotoxicity call in the assay with HSkMC and in the assay with HepG2 was “inactive” in each case. Further, the growth inhibition call with S. aureus RN4220 is “inactive”.

For the compound `C[C@@H]1CN([C@H](C)CO)C(=O)Cc2cc(NS(=O)(=O)c3ccc(Cl)cc3)ccc2O[C@@H]1CN(C)Cc1ccc(C(=O)Nc2ccccc2N)cc1`, the cytotoxicity call in the assay with HSkMC and in the assay on HepG2 was “inactive” throughout. In the assay with S. aureus RN4220, the growth inhibition call is “inactive”.

Turning to `COc1ccc(S(=O)(=O)N(C)C[C@H]2OCCCC[C@H](C)Oc3ccc(NC(=O)CCC(F)(F)F)cc3C(=O)N([C@@H](C)CO)C[C@H]2C)cc1`, the cytotoxicity call with HSkMC and with HepG2 was “inactive” throughout. In the assay with S. aureus RN4220, the growth inhibition call was “inactive”.

For `CN(C)CC#Cc1ccc([C@H]2[C@H]3CN(C(=O)c4cccnc4)CC(=O)N3[C@H]2CO)cc1`, the cytotoxicity call in the assay on HSkMC and in the assay with HepG2 was “inactive” in each case. Besides, in the assay on S. aureus RN4220, the growth inhibition call is “inactive”.

Turning to `C[C@H](CO)N1C[C@H](C)[C@@H](CN(C)C(=O)Nc2ccccc2)Oc2ccc(NS(=O)(=O)c3cn(C)cn3)cc2C1=O`, the cytotoxicity call in the assay on HSkMC and in the assay with HepG2 was “inactive” throughout. For the same compound, in the assay on S. aureus RN4220, the growth inhibition call is “inactive”.

Consider `Cc1ccc(S(=O)(=O)Nc2ccc3c(c2)C(=O)N([C@H](C)CO)C[C@H](C)[C@@H](CN(C)S(C)(=O)=O)OCCCC[C@H](C)O3)cc1`, for which the cytotoxicity call in the assay with HSkMC and in the assay with HepG2 was “inactive” throughout. For the same compound, the growth inhibition call with S. aureus RN4220 is “inactive”.

For the compound `CCN(CC)c1ccc(CN)cn1`, the cytotoxicity call in the assay with HSkMC and in the assay with HepG2 was “inactive” throughout. Besides, in the assay on S. aureus RN4220, the growth inhibition call is “inactive”.

On to `C[C@@H]1CN([C@@H](C)CO)C(=O)c2cc(NC(=O)Nc3ccccc3)ccc2O[C@@H](C)CCCCO[C@H]1CN(C)S(=O)(=O)c1ccccc1`, for which the cytotoxicity call in the assay on HSkMC and in the assay with HepG2 was “inactive” in each case. In addition, the growth inhibition call in the assay with S. aureus RN4220 was “inactive”.

With `C[C@@H]1CCCCO[C@@H](CN(C)S(=O)(=O)c2ccc(Cl)cc2)[C@H](C)CN([C@H](C)CO)C(=O)c2cc(NC(=O)NC3CCCCC3)ccc2O1`, the cytotoxicity call in the assay with HSkMC is “inactive”. For the same compound, the cytotoxicity call with HepG2 was “active”. Besides, the growth inhibition call in the assay on S. aureus RN4220 was “inactive”.

Turning to `COC(=O)c1cc(=O)[nH]c2c1c(=O)n(C)c(=O)n2C`, the cytotoxicity call in the assay on HSkMC and with HepG2 was “inactive” each time. Besides, in the assay with S. aureus RN4220, the growth inhibition call was “inactive”.

For the compound `CC(C)NC(=O)N(C)C[C@H]1OCCCC[C@@H](C)Oc2ccc(NS(=O)(=O)c3cn(C)cn3)cc2C(=O)N([C@H](C)CO)C[C@H]1C`, the cytotoxicity call in the assay on HSkMC and in the assay on HepG2 was “inactive” each time. Also, the growth inhibition call with S. aureus RN4220 is “inactive”.

For `C[C@H]1CCCCO[C@@H](CN(C)C(=O)Nc2ccccc2)[C@@H](C)CN([C@@H](C)CO)C(=O)c2cc(NS(=O)(=O)c3ccc(Cl)cc3)ccc2O1`, the cytotoxicity call in the assay with HSkMC and in the assay on HepG2 was “inactive” each time. For the same compound, in the assay on S. aureus RN4220, the growth inhibition call was “inactive”.

In the case of `CN(C)CC(=O)N[C@@H]1C=C[C@H](CC(=O)NCCN2CCCCC2)O[C@H]1CO`, the cytotoxicity call in the assay with HSkMC and in the assay with HepG2 was “inactive” throughout. The growth inhibition call with S. aureus RN4220 is “inactive”.

On to `Cn1cc(CN2C[C@H]3CCCO[C@H]3[C@H](NS(C)(=O)=O)C2)cn1`, for which the cytotoxicity call with HSkMC and with HepG2 was “inactive” each time. In the assay with S. aureus RN4220, the growth inhibition call was “inactive”.

Turning to `CC(C)C(=O)Nc1ccc([N+](=O)[O-])c(C(F)(F)F)c1`, the cytotoxicity call in the assay with HSkMC is “inactive”. Further, the cytotoxicity call in the assay on HepG2 was “active”. Also, in the assay with S. aureus RN4220, the growth inhibition call is “inactive”.

Regarding `C[C@@H]1CN([C@H](C)CO)C(=O)Cc2cc(NC(=O)NC3CCCCC3)ccc2O[C@H]1CN(C)S(C)(=O)=O`, the cytotoxicity call with HSkMC and with HepG2 was “inactive” throughout. In addition, the growth inhibition call in the assay on S. aureus RN4220 was “inactive”.

As to `CN(C)CCCNC(=O)C[C@@H]1CC[C@@H](NS(=O)(=O)c2ccccc2)[C@H](CO)O1`, the cytotoxicity call in the assay with HSkMC and with HepG2 was “inactive” throughout. For the same compound, the growth inhibition call with S. aureus RN4220 was “inactive”.

For `Cc1noc(C)c1NC(=O)N(C)C[C@@H]1OCCCC[C@H](C)Oc2ccc(NC(=O)Nc3ccc(F)cc3)cc2C(=O)N([C@@H](C)CO)C[C@H]1C`, the cytotoxicity call in the assay with HSkMC and in the assay on HepG2 was “inactive” throughout. In addition, in the assay with S. aureus RN4220, the growth inhibition call was “inactive”.

Take `CN(C)CC(=O)N[C@H]1C=C[C@@H](CC(=O)NCCN2CCCCC2)O[C@@H]1CO`: the cytotoxicity call with HSkMC was “inactive”. Moreover, in the assay with HepG2, the cytotoxicity call is “active”. For the same compound, the growth inhibition call in the assay with S. aureus RN4220 was “inactive”.

For `C[C@@H]1CN([C@H](C)CO)C(=O)c2cccc(NC(=O)c3nc4ccccc4s3)c2O[C@H]1CN(C)S(=O)(=O)c1cn(C)cn1`, the cytotoxicity call in the assay on HSkMC (human skeletal muscle cells) and with HepG2 was “inactive” throughout. Further, in the assay with S. aureus RN4220, the growth inhibition call is “inactive”.

These data come from the antibiotic and cytotoxicity screens of Wong et al. (2023).
